Results taken from the BET-seq Pho4 binding data (Le et al. 2018).
This is one part of the list. Values were computed here from the reads of four pooled replicates and scatter widely.

target: T1, Pho4 (S. cerevisiae) (UniProt P07270); assay: relative binding free energy (BET-seq); higher = weaker binding; conditions: reference: library average
T1 sequence: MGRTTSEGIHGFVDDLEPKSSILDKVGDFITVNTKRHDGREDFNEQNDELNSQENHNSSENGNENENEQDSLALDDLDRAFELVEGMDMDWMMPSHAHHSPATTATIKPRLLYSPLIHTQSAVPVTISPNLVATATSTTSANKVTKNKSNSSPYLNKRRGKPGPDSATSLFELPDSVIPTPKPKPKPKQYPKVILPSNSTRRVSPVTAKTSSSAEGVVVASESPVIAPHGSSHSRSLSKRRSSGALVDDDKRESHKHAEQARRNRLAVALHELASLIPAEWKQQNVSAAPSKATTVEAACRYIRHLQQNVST

Sequence | relative binding free energy [kJ/mol]
TGTGGCACGTGTGTCT | -0.335
TGCTGCACGTGGTGGT | -0.669
TTGAACACGTGGCTGT | 0.502
GATTGCACGTGGGGCA | -0.628
AAGGGCACGTGTTCGG | -0.293
TTGAGCACGTGCTGGC | -0.502
CGTTCCACGTGGATGG | 0.418
TTATCCACGTGAGTTG | 0.502
TTAATCACGTGGACGT | 0.46
ACATTCACGTGTGATG | 1.3
GAGTACACGTGGTAGT | 0
CGGGACACGTGGGTCG | -0.293
GAGTTCACGTGTGGAA | 1.84
TTATTCACGTGGTCCG | 1.38
GTGCTCACGTGGACGG | 1.26
GGTTGCACGTGCCAGG | -0.0418
ATGCGCACGTGAGGCG | 0.209
CATTTCACGTGTTTGG | 1
ATTCTCACGTGGGTAA | 0.209
ACTTTCACGTGATGTA | 1.26
AGGAACACGTGAGTGT | 1.3
TGCGGCACGTGTGTTC | 0
TCTGTCACGTGTAAGA | 0.46

Sequence | relative binding free energy [kJ/mol]
TTCGTCACGTGTGCGG | -0.167
GGTGGCACGTGGCTCG | -0.46
AGCCACACGTGGGGTG | -0.377
GTATGCACGTGGTAGC | -0.167
ACTATCACGTGTTATG | 0.377
TTGAGCACGTGTGCGC | -0.0418
ATGCTCACGTGTGCGG | 0.544
TAAAGCACGTGGAAGG | 0.335
GGCGGCACGTGGGGTA | -0.335
TCTGTCACGTGAGTGA | 1.09
TAATTCACGTGTACGG | 1.38
TAACGCACGTGTTTGA | -0.0418
GTTGCCACGTGGGTTA | -0.879
TTTAGCACGTGCGTCT | 0
TGTGGCACGTGGCTAT | -1.21
GTATGCACGTGATGTA | 0.377
AGGGTCACGTGTGGGA | 0.628
TTCGTCACGTGGCGGG | 0.251
GGGTTCACGTGAATTG | 1.67
GGTCGCACGTGGAGTT | 0
TTCTGCACGTGGAGCG | 0.126
AGGGTCACGTGGGTTG | -0.126
TTTATCACGTGTTATG | 0.795

Sequence | relative binding free energy [kJ/mol]
TTTCGCACGTGTATAT | -0.335
GTGAACACGTGCTCGG | 0.251
GATATCACGTGTTGAG | 0.795
TAGGCCACGTGAGAGG | 0.669
AAAGGCACGTGTATGA | -0.251
GTTGACACGTGGTCGT | -0.293
TGGGACACGTGCTTAT | -0.126
GAGGACACGTGTCGGT | 1.34
AGGTGCACGTGGGATA | -0.92
GTAGGCACGTGCAAGG | -0.377
AGCTTCACGTGAGTTG | 1.51
ATGTGCACGTGTTACA | -0.586
CATGGCACGTGCGGGA | -0.711
ATGGGCACGTGAGACA | 0.628
CGATGCACGTGTGTAG | -0.0418
GAACTCACGTGGGGTT | 1
GGTAGCACGTGTGGCA | -0.586
CTTTCCACGTGGGGGT | -0.126
ATTTGCACGTGAGAGG | 0.544
TATTACACGTGTTAGT | 0.0418
TGGTGCACGTGGTCCG | -0.669
GAATGCACGTGGCGTA | 0.209
ATGTGCACGTGAGTAG | 1.05

Sequence | relative binding free energy [kJ/mol]
GCTTACACGTGGATTG | 0.377
ACGTGCACGTGTTGAG | -0.418
GCTGGCACGTGGGGGA | -1
TTTATCACGTGAATTT | 1.63
GTGTACACGTGCGAGT | 0.0418
GATGGCACGTGTAGAT | 0.837
GGGAACACGTGGTGGC | -0.502
GATGTCACGTGCGGCG | 0.711
GATTGCACGTGACGTT | 0.209
AGTGGCACGTGGATTT | -0.669
GCCTGCACGTGGGGTG | -0.753
TGCGTCACGTGGGTCA | -0.711
GGGGACACGTGGGCAA | 0.0837
TGTTTCACGTGGATTG | 0.92
AATTGCACGTGCGGGA | -0.711
GGAGTCACGTGAGGTA | 1.76
GTAGGCACGTGGTGGA | -0.126
GTTTCCACGTGGGAAT | 0.669
CGGGGCACGTGTACTG | -0.126
GTACGCACGTGGCGGT | -0.669
GTGAGCACGTGTAAGA | 0.167
TTGGTCACGTGCCGGA | 0.251
AATGGCACGTGGTTTC | -0.962

Sequence | relative binding free energy [kJ/mol]
CGTGACACGTGGTGTA | -0.586
TTTGCCACGTGTCTGT | -0.669
TATTACACGTGGGCTA | -0.293
ATAGGCACGTGCGGGG | -0.795
GTTAACACGTGGGTGT | -0.335
CTGTTCACGTGTTCTG | 1.17
TGGGTCACGTGTGCGA | 0.209
GCTGGCACGTGGAGGT | 0.251
GAGTCCACGTGTGTTT | 0.544
ACAGGCACGTGGGGTC | -0.962
ACTGTCACGTGTGTGC | 0.544
TGAACCACGTGGTAGT | 0.0418
TTTTACACGTGAAAAT | 1.84
TGGAGCACGTGGCGTT | -0.962
TTAAACACGTGTGGGC | 0.0418
GTTTTCACGTGTGCGA | 1.59
TTAATCACGTGGTACA | 0.502
CATGTCACGTGAGGCG | 1.46
CTAGGCACGTGTGTGA | -0.126
TAAGGCACGTGTCATT | -0.711
AATGGCACGTGTGGCT | -0.92
CTATTCACGTGGGAGG | 0.628
ATAGGCACGTGTGGCG | -0.209
